The values that follow come from article PMC12136788.

To fix the notation:
T1: UNK ZnF1-3 (human, UniProt Q9C0B0 31-174)
T1 sequence: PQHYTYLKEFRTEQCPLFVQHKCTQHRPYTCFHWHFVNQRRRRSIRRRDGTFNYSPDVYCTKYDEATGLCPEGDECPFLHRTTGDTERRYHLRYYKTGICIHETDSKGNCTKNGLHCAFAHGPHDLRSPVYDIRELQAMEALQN

B1: chr1:225611761:225611762:-_ENSG00000143815_ENST00000272163|hu_mus|hu_hu_hu_mus_True|38_78 (ssRNA)
RNA: GGGAGUUCUACAGUCCGACGAUCCCAGGCCAUCGGCCUCUGACCACUUCACCCUCAGCAAAUUUCCUACUUGGCAUUUUCUAAAAUUAGUCUGGCCCAGGUUCCGGGGGAACUCCAGCCACUCCAGGACAGUCACCAGCAGCCCAACAGAGGAUUGAGCAUCA
B2: 74640089_74641450_513_3pUTR_ENSG00000113161_ENST00000287936|human|control|control (ssRNA)
RNA: GGGAGUUCUACAGUCCGACGAUCUGUGCUUGCUCUGGAAAGGUCAAUCAAAAGUAGGAAAAAGGGCAAAGCUUCAUUCAAGCCUGUCAAUUCUUUGUCUAAGAAGUGAAUGACAACUGUACUGAAUACAAAACUUGAGAAAAUCAACAGAGGAUUGAGCAUCA
B3: chr5:100395146:100395147:-_ENSMUSG00000000568_ENSMUST00000112939|mus_mus|FALSE|FALSE (ssRNA)
RNA: GGGAGUUCUACAGUCCGACGAUCAGAAAGGCCACCAACAAAAAUUUUUUUGACAGGCUCUUUUGUUUUCAUGGCUUUGGCCCUUUUAGGAUCAAUGACUUUCCCAUUCAAUUUAUGUUCUUUCUGAUCCAUGACCUUAUCUACCAACAGAGGAUUGAGCAUCA
B4: chrX:72692514:72692515:+_ENSMUSG00000031201_ENSMUST00000033544|mus_hu|FALSE|FALSE (ssRNA)
RNA: GGGAGUUCUACAGUCCGACGAUCUACUGCUGAUUCAAGGCACACUUUCCCGAUAGUGACAUGAGGUACAAUAUGGAUUGGGAUUUCGAUUCUCUCAUACCUUUCCUCUUCCUUCUGGCCCUCAAUGGAGAUGUGCUGGCUGGACAACAGAGGAUUGAGCAUCA
B5: chr6:136599331:136599332:-_ENSG00000029363_ENST00000527536|hu_hu|FALSE|FALSE (ssRNA)
RNA: GGGAGUUCUACAGUCCGACGAUCGGGAGCAUCAGAGCAAGAUGAACUCUGACUAGGUGGUGUAGCAAUAGGUGAAGGACUAUGGGGUGAUCUAGGACUAUUAUCAUAAGCUGAAAGGCCAGGCCAAAUAUCACCGGAUGUGGCCAACAGAGGAUUGAGCAUCA
B6: chr12:100720429:100720430:+_ENSG00000136021_ENST00000360820|hu_hu|motif|central (ssRNA)
RNA: GGGAGUUCUACAGUCCGACGAUCGAAGGGUAGGAUAUCAUCAAGUACAAACCACUUAUCCAAGUAUUCCAAAAUCUUUCCGGAGCACACUAAUGAAUUUACACGAACCGCAAGGGAAGAUGUUUGUAGACAAGCAUUUUUAAUCAACAGAGGAUUGAGCAUCA
B7: chrX:98862621:98862622:+_ENSMUSG00000034160_ENSMUST00000044475|mus_hu|mus_mus_mus_hu_False|78_88 (ssRNA)
RNA: GGGAGUUCUACAGUCCGACGAUCCUGCAUCUCCUUUAGAGUGUUUCCCAUAUUGGAAUAAGCAUCAGCAAAGGUAGGACUGAUUCGAAUAGCCUCCUUAUAAUGCAUCAGAGCUUCCUGCAGUUUUCCCUGCUGCUGCAGUACCAACAGAGGAUUGAGCAUCA
B8: 64422500_64422620_5102_CDS_ENSG00000118482_ENST00000393387|human|control|control (ssRNA)
RNA: GGGAGUUCUACAGUCCGACGAUCCUGCUGAACACACGAGUUUUUCUCUGCAGAACACAACUUUUCCUCUACAUUGAUUUGUUCUGUUAAGUGCUCCUUGUUGUGUGACAGGCCAGGCAGCAUGUGUUUUUCUCCAUUCCGGCACAACAGAGGAUUGAGCAUCA
B9: chr5:40767622:40767623:-_ENSG00000132356_ENST00000397128|hu_mus|FALSE|FALSE (ssRNA)
RNA: GGGAGUUCUACAGUCCGACGAUCAUCUUUUAUUGCGGCCCUCUUCAUGGGAUCCACCUGCAGCAUAUGUUUCAAAAGGCUGAUUACUGAAGGGUUUAAGUACUGAGGGGUAUAAAAGAUCCCAUCACAUAUCUUCUUAAAAAGCAACAGAGGAUUGAGCAUCA
B10: chr18:35732242:35732243:+_ENSMUSG00000037236_ENSMUST00000166793|perfect_dup|motif|central (ssRNA)
RNA: GGGAGUUCUACAGUCCGACGAUCACGACUUCCAUGGUCAUAAUCAAGCACUGGGUUGAGACUAGGACCACGAUCAUCAAAACGGUCUCUUCUAAAGUGCCUUUUUUCUUCCCAAUCAUCCCUAGGUACUCUGUAUGGUGGCUCCAACAGAGGAUUGAGCAUCA
B11: chr14:76904430:76904431:+_ENSMUSG00000022010_ENSMUST00000022587|mus_mus|mus_mus_mus_hu_True|58_68 (ssRNA)
RNA: GGGAGUUCUACAGUCCGACGAUCUGCAGCCAAAAACACCCUCGUGGAAAAAAAGAGGGAACACCAGCAGCCUGGUUCAAACUAGAUAAAAUCUUCUGGCUUUCCGCAGCCCAGGGAGAAACAGAAAACGGCAGCCCUAAUUUACAACAGAGGAUUGAGCAUCA
B12: chr6:145182920:145182921:-_ENSMUSG00000030265_ENSMUST00000032399|mus_hu|FALSE|FALSE (ssRNA)
RNA: GGGAGUUCUACAGUCCGACGAUCCUCCUCUUGACCUGCUGUGUCGAGAAUAUCCAAGAGACAGGUUUCUCCAUCAAUUACUACUUGCUUCCUGUAGGAAUCCUCUAUUGUUGGAUCAUAUUCGUCCACAAAAUGAUUCUGAAUCAACAGAGGAUUGAGCAUCA
B13: chr2:26332712:26332713:+_ENSG00000084733_ENST00000264710|hu_hu|FALSE|FALSE (ssRNA)
RNA: GGGAGUUCUACAGUCCGACGAUCGUUUCUAAGCCAUUUGCUGAUGUUUUCAAAACUUUUACCAUUGGUGAUGUCAUAUACUAGCAUGAUACCCAUUGCGCCUCUGUAGUAGGAGGUUGUGAUGGUGUGAAAUCGCUCCUGGCCCAACAGAGGAUUGAGCAUCA
B14: chrX:71549762:71549763:+_ENSMUSG00000019087_ENSMUST00000019231|mus_mus|mus_mus_mus_hu_False|38_78 (ssRNA)
RNA: GGGAGUUCUACAGUCCGACGAUCAAACCCGUGUACUUCUUAUUGUUAGCACAACAUUCCCCCCCAACGAUAACGACAGCCAAGCAGGACAGACAGUCAAGUAGUCUUUCCACACUCCCAAACUCAGGGAGCCCUAUAACCUUACAACAGAGGAUUGAGCAUCA
B15: chr12:25741899:25741900:+_ENSMUSG00000036333_ENSMUST00000066652|mus_mus|motif|central (ssRNA)
RNA: GGGAGUUCUACAGUCCGACGAUCCAAGUCUGUCUGGAAGAGACUAGGCCGUUCUGAAGACUUCUUGCCUGGGAGCAGCUUACGGCCUGACUGGUCGGAUUUCUCAUCUUCCUCAGUAAUGGGGUCCAGGGGUGAGGCCUCAUUCAACAGAGGAUUGAGCAUCA
B16: chr13:100193275:100193276:-_ENSMUSG00000052727_ENSMUST00000064762|mus_mus|FALSE|FALSE (ssRNA)
RNA: GGGAGUUCUACAGUCCGACGAUCAGGCUAGAAAUUGUUUCUCUUCACGUGUGGACCAGCCUAACAGCUCCCAUUAAAUUACUAUCUUGUGUGUAUUGAGCUUGUCUGAUGAAGUGAGAAGCAAGUGGGCUUACAGGCAACGAACAACAGAGGAUUGAGCAUCA
B17: chr1:66459500:66459501:+_ENSMUSG00000015222_ENSMUST00000114013|mus_mus|motif|central (ssRNA)
RNA: GGGAGUUCUACAGUCCGACGAUCGAAGACAGGGGCAAAGGGUCGUGGUCCUUCUGAGACUCUCUCAUUCUUCAUAGUGUCGGAGGGAAGAGUGAAACUUCCACCAUGGAAGGGGCUUGGCAUGGGAGAGUCAAACUGCUUCCCCAACAGAGGAUUGAGCAUCA
B18: chr4:25749455:25749456:-_ENSG00000091490_ENST00000264868|hu_hu|hu_hu_hu_mus_False|1_28 (ssRNA)
RNA: GGGAGUUCUACAGUCCGACGAUCGCACUAUGACCUCUAGAAAAAUCCACAGGGGGAAAAAAUGUAAACCAAUGUACAAUGUUAUCGCCUUCCCUGUGUGUGGAGUGACAAACAAUUGGCUCCUUCUAGCUGCUGGACUGCUAGCAACAGAGGAUUGAGCAUCA
B19: chr2:172291668:172291669:+_ENSG00000115827_ENST00000375255|hu_mus|motif|central (ssRNA)
RNA: GGGAGUUCUACAGUCCGACGAUCAACACUGCUGACACAGCACCGGUAAUUGUCAAAAUAUAUUCUUCCUCUCUCAUAGGCGGUAGGUGACUUGGAAUGAGUUGUCCAAACAUUCUUAAAUUUAGUACUCUCCUGGCACACCAGCAACAGAGGAUUGAGCAUCA
B20: chr2:9570881:9570882:+_ENSG00000119203_ENST00000238112|hu_mus|hu_hu_hu_mus_False|48_48 (ssRNA)
RNA: GGGAGUUCUACAGUCCGACGAUCACUUGUCUUCUGAAGGAACCAGGGCAGGGCUCCACAGUGAUCCAAAUGGAAAUGACUGAUCAAUAGGAGAUCAAUCUCAGCUGGGUCGAUAAGGUCAAUGUAAGGAAGGGCAUCCAUUCCCAACAGAGGAUUGAGCAUCA
B21: chr1:220276048:220276049:+_ENSG00000067704_ENST00000302637|hu_hu|hu_hu_hu_mus_True|38_68 (ssRNA)
RNA: GGGAGUUCUACAGUCCGACGAUCGCAAAUUGCCUGGUUGGCGGGAAUUGUCCAAGGCUGGGUGGUCCAGACCAAAACGCUAACAGGGGAUGAGGCAUCUAUAAGAGACUCCAACUUCGGAGGAGGUCUCAGGAGGGGGAAUCUCAACAGAGGAUUGAGCAUCA
B22: chr2:32530670:32530671:+_ENSG00000119820_ENST00000437765|hu_hu|FALSE|FALSE (ssRNA)
RNA: GGGAGUUCUACAGUCCGACGAUCCCAAUUCCUUCAGCAAGAAUUCCCAGCCUACACACAAAUUUAACACCAUCUUUUUCUAUUCAUGUAUAACUUGGAUCACACACCAGUAUAUAACGACAAAAAAUAAAUGUAUAAUAAAAACAACAGAGGAUUGAGCAUCA

The list shows a part of the results.

The target in this assay is T1, UNK ZnF1-3. The assay is described as follows: nsRBNS (natural sequence RNA bind-n-seq); RBNS binding buffer (assumed for nsRBNS): 25 mM Tris pH 7.5, 150 mM KCl, 3 mM MgCl2, 0.01% Triton X-100, 500 ug/ml BSA, 20 U/ml SUPERase-In, 4 C; UNK is unkempt and MSI1 is Musashi-1; names of the RNAs are library labels; protein concentration not given here; high values mean tight binding.
Turning to B1, the binding signal turned out to be 1.31 enrichment R.
The result for B2 reads 1.36 enrichment R; that for B3, 0.844 enrichment R.
Take B4: the binding signal is 0.846 enrichment R.
The same measure for B5: 1.95 enrichment R; for B6: 1.24 enrichment R; for B7: 1.21 enrichment R.
B8: the binding signal came out at 0.434 enrichment R.
On to B9, for which the binding signal turned out to be 1.16 enrichment R.
The same measure for B10: 1.05 enrichment R.
In turn, B11 had a binding signal of 2.75 enrichment R.
The result for B12 reads 0.592 enrichment R; that for B13, 0.595 enrichment R; that for B14, 1.41 enrichment R.
The same measure for B15: 0.478 enrichment R; for B16: 0.908 enrichment R.
The same measure for B17: 0.887 enrichment R; for B18: 0.989 enrichment R.
With B19, the binding signal turned out to be 1.49 enrichment R.
The result for B20 reads 1.11 enrichment R; that for B21, 1.77 enrichment R; that for B22, 2.78 enrichment R.
